Measurements as given in paper PMC10745200.
These are yes or no findings as the source states them, for the method shown. Binding seen in cells or lysates may run through a third protein. Some binding calls cover weakened binding; strength is not graded here. For some assays here: Where a sequence is shown, tags or fusion partners need not be part of it.

Protein sequences, listed by entry. Tags and fused reporters are not part of them.
UniProt P28482: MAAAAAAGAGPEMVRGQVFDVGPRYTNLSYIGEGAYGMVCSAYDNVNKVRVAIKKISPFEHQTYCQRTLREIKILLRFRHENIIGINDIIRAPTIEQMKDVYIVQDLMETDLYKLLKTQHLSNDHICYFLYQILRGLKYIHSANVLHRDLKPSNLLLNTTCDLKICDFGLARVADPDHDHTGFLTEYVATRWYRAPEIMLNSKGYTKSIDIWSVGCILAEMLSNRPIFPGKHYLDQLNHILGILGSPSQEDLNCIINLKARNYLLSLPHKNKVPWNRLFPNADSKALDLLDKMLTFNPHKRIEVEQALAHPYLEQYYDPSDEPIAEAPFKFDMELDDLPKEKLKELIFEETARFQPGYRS
UniProt P27361: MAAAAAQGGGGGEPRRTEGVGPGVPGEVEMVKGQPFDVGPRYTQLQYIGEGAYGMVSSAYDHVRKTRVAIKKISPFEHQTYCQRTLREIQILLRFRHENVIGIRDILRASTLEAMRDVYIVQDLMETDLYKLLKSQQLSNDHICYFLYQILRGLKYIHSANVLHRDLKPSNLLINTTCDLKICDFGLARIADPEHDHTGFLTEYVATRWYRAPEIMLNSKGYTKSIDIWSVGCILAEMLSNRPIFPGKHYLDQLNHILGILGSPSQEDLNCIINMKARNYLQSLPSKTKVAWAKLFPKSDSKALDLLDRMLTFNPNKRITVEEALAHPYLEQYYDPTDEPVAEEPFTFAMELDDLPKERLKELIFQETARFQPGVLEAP

Tests used:
HA-FBXO3 wild-type = biological target: T1, HA-FBXO3 wild-type (UniProt Q9UK99); test: co-IP; Fig 5L: HEK293T co-transfected with the indicated expressing plasmids; IP-western
T1 sequence: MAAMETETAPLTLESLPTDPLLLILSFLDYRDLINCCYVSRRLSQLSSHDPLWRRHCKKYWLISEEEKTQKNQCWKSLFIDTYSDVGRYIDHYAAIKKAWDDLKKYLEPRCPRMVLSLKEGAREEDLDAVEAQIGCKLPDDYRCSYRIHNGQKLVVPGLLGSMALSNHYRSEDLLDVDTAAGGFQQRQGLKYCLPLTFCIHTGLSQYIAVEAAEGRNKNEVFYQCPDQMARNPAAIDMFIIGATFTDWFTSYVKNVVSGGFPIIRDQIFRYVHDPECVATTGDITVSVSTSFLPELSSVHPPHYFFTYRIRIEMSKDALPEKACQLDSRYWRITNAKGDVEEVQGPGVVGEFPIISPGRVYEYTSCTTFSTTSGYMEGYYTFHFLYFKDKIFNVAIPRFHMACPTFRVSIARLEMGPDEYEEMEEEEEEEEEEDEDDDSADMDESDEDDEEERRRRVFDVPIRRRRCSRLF

Flag-USP4 = biological target: T2, Flag-USP4 (UniProt Q13107); test: co-IP; Fig 4F: HEK293T co-transfected with Flag-USP4 and HA-FBXO3, HA-FBXO3^ΔApaG, HA-FBXO3^ΔF or vector for 36 h, then 0.5 μm Tosedostat for 16 h; IP-western; FLAG/HA M2-conjugated agarose beads, 4°C overnight; which tag was precipitated is not told
T2 sequence: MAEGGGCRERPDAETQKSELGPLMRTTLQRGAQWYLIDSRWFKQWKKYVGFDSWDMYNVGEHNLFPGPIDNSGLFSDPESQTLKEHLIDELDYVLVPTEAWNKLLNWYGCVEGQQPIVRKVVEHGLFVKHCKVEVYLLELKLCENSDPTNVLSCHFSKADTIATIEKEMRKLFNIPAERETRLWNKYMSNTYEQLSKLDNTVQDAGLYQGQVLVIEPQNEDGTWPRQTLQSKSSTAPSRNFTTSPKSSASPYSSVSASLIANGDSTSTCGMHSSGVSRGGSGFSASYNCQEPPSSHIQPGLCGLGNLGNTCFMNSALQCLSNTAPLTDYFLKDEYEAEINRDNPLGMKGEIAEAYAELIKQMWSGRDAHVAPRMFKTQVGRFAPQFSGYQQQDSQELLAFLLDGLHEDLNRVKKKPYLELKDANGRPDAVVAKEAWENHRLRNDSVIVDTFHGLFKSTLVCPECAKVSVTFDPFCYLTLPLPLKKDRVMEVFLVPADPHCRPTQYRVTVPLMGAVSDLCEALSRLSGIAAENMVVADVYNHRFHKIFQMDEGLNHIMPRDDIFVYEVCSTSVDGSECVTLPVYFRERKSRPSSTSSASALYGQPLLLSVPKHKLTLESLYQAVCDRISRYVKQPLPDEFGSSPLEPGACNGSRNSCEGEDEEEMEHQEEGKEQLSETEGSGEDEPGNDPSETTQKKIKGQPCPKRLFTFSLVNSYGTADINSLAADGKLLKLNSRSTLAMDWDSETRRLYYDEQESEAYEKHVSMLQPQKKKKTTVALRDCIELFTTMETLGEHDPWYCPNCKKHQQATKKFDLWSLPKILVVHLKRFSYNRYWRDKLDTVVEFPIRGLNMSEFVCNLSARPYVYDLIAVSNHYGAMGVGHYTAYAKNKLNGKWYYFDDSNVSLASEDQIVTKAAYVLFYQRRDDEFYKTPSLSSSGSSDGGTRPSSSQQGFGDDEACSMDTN

[1] = biological target: T3, USP4 (endogenous, MDA-MB-231) (human (endogenous in MDA-MB-231)) (UniProt Q13107); test: co-IP; Fig 4G: MDA-MB-231 cells, endogenous proteins; IP-western with anti-FBXO3 or anti-USP4 antibody and Protein G Plus/Protein A agarose beads
T3 sequence: T2 sequence

[2] = biological target: T4, Flag-USP4 (stably expressed in MDA-MB-231) (UniProt Q13107); test: co-IP; Fig 4H: MDA-MB-231 cells stably expressing Flag-USP4, infected with lentivirus expressing HA-FBXO3 or a vector control; 0.5 μm Tosedostat for 16 h; IP-western
T4 sequence: T2 sequence

“ERK2 (from UniProt P28482 1-360) (enzyme)” was tested, and the binding (HA-FBXO3 wild-type) was “no binding”.

For “ERK1 (from UniProt P27361 1-379) (enzyme)”, the binding (HA-FBXO3 wild-type) was “binds”.

B1: HA-FBXO3 wild-type (protein, UniProt Q9UK99 1-471)
chain: T1 sequence
With B1 the binding (Flag-USP4) was “binds”.

B2: FBXO3 (endogenous, MDA-MB-231) (protein, UniProt Q9UK99 1-471)
chain: T1 sequence
For B2, the binding [1] was “binds”.

B3: HA-FBXO3 (lentiviral, in MDA-MB-231) (protein, UniProt Q9UK99 1-471)
chain: T1 sequence
B3 was tested, and the binding [2] was “binds”.
